The data set can be described thus: Thermostability of the stabilizers: differential thermoanalysis. Format: physicochemical. The following applies: 2° C/minute, 2 mg. The method, then:
The thermostability of Stabilizer 2 and that of 2-phenyl-indole were studied by differential thermoanalysis and by thermogravimetric analysis.
Differential thermoanalysis diagrams were drawn up by studying 2 mg samples of material placed in a non-airtight container, the rate of temperature increase being 2° C/minute and sensitivity 4 mcal/sec.
The diagrams were made out for 2-phenyl-indole (i) and Compound 2 (ii) and enabled the following conclusions to be drawn: […]

Entries with a single value are a further part of the results.

Drawing on patent US4096112A, “2-Phenyl-indole derivative stabilizers for PVC resins” (Labaz, priority 1976, dated 1978), this text covers Sublimation temperature for one compound.

As for `c1ccc(-c2cc3ccccc3[nH]2)cc1` [2-phenyl-indole], the Sublimation temperature is 185-190 °C (marked sublimation at melting point) and 140 °C (sublimation begins).
